# Assay results published in PubChem BioAssay AID504832 (National Center for Advancing Translational Sciences (NCATS), 2011).
# Among all 310,000 compounds or so, about 18,000 (5.8%) were called active. This list was built around the results that the source calls inconclusive (neither active nor inactive); the mix of calls is not that of the screen. Calls come from the whole dose curve; as a rule, active = well fitted inhibition curve with a large enough effect; inconclusive = small, poorly fitted or top-dose-only effect, or another doubt; inactive = no such curve, though single readings can be large or run the other way. Potencies of inconclusive entries are left out as doubtful fits.
# Assay: Primary qHTS for delayed death inhibitors of the malarial parasite plastid, 48 hour incubation
# Details: P. falciparum luciferase growth in erythrocytes; series mostly up to 28.7 µM
# Summary of the method: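 Read-out is firefly luciferase luminescence from an integrated reporter in P. falciparum, so falling signal marks reduced parasite growth. Infected erythrocytes were at 2% hematocrit and 0.1% parasitemia (final) in Albumax-supplemented RPMI 1640.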
# Potency is the fitted concentration of half-maximal effect; tags give direction and shape of the fitted curve.
row,SMILES,Potency
1,Cn1c(=O)cc(OCCCC(=O)Nc2ccc3c(c2)OCCO3)c2ccccc21,"inconclusive [inhibitor, single point]"
2,CCCN(C(=O)C(=O)Nc1ccc2nc3n(c(=O)c2c1)CCCCC3)c1ccc(OCC)cc1,active: 0.117 µM
3,Cc1cc2cc(CNC(=O)CCC(=O)O)ccc2[nH]1,inactive
4,O=C(O)C1=C[C@@H](c2ccc(Br)cc2)C[C@@H](OCc2ccc(CO)cc2)O1,inactive
5,c1ccc(Oc2ccc(-c3ccn[nH]3)cc2)cc1,inactive
6,N#CC1=C(N)SC(N)=C(C#N)C1c1ccnc2ccccc12,inactive
7,O=C(NC1CCN(C(=S)NCc2ccco2)CC1)c1ccc(F)cc1,"inconclusive [inhibitor, single point]"
8,O=[N+]([O-])c1ccc(C[n+]2cc(-c3ccc(Cl)c(Cl)c3)n3c2CCCCC3)cc1,"inconclusive [inhibitor, full curve, poor fit]"
9,CCOC(=O)c1c(C)n(C)c2ccc(OCC(O)CNC(CC)CO)cc12 (stereo not given),"inconclusive [inhibitor, single point]"
10,CCOC(=O)C1CCN(Cc2ccc(-c3ccccc3)cc2)CC1,"inconclusive [inhibitor, single point]"
11,CC(C)c1ccc(NC(=O)C(c2ccccc2)N(Cc2ccco2)C(=O)CC2NC(=O)NC2=O)cc1 (stereo not given),"inconclusive [inhibitor, partial curve]"
12,CCN(CC)c1ccc(NC(=O)Nc2cccc3ccccc23)cc1,"inconclusive [inhibitor, single point]"
13,COc1ccc(N(Cc2cc3cc(OC)ccc3[nH]c2=O)S(=O)(=O)c2ccc(NC(C)=O)cc2)cc1,active: 2.33 µM
14,CCCCN1C(=O)C2ON(c3ccccc3C)C(c3ccco3)C2C1=O (stereo not given),active: 13.1 µM
15,CC(C)Oc1ccccc1/C=N/NC(=O)C1CCCC1,inactive
16,CCOC(=O)C1CCN(C2=C(NS(=O)(=O)c3ccc(Br)cc3)C(=O)c3ccccc3C2=O)CC1,"inconclusive [inhibitor, partial curve, poor fit]"
17,CCN(C(=O)c1cnc(N2CCN(c3ncccn3)CC2)c2ccccc12)c1cccc(Cl)c1,"inconclusive [inhibitor, full curve, poor fit]"
18,CCOC(=O)c1sc(NC(=O)CSC(=S)N2CCOCC2)nc1C,"inconclusive [inhibitor, partial curve, poor fit]"
19,Cc1cc(=O)n(C)c(=O)n1CCCCCN1CCCC1,inactive
20,CCC(COC)NCc1cn(-c2ccc(F)cc2F)nc1-c1ccccc1C (stereo not given),"inconclusive [inhibitor, single point]"
21,COc1ccc(C2CC(c3ccc(OC)cc3)n3nc(NC(=O)c4cccs4)nc3N2)cc1 (stereo not given),"inconclusive [inhibitor, full curve, poor fit]"
22,CN1C(=O)C(CC(=O)NCC2CCCCC2)SC1=Nc1ccccc1 (stereo not given),inactive
23,COc1ccc(CCC(=O)NCC2CCCCC2)cc1OC,inactive
24,CCOC(=O)C1=C(N)Oc2ccc3ccccc3c2C1c1cccc(O)c1 (stereo not given),"inconclusive [inhibitor, single point]"

row,SMILES,Potency
1,CO/N=C(/C(=O)N[C@@H]1C(=O)N2C(C(=O)O)=C(CSc3nnnn3C)CS[C@H]12)c1csc(N)n1,inactive
2,O=C(CNC(=O)c1ccco1)NCC(=O)OCc1ccc(F)cc1,inactive
3,Clc1ccc(-n2ncc3c(NCc4ccccn4)ncnc32)cc1,inactive
4,CCCCN(C(=O)c1ccc2c(c1)S(=O)(=O)N=C1CCCCCN12)c1c(N)n(CCCC)c(=O)[nH]c1=O,inactive
5,CCC(C)C(NC(=O)C1CCC(C)CC1)C(=O)NC(CCSC)C(=O)OC (stereo not given),inactive
6,CC(C)Nc1nc(Oc2ccc(=O)n(-c3ccccc3)n2)nc(N(C)C)n1,inactive
7,COc1cccc(-c2csc(N3CCN(C(=S)Nc4cccc(C)c4)CC3)n2)c1,"inconclusive [inhibitor, single point]"
8,O=C(O)c1[nH]c(=O)[nH]c(=O)c1F,active: 0.0117 µM
9,O=C1C2C3C=CC(C3=C3CCCCC3)C2C(=O)N1Cc1ccccc1 (stereo not given),"inconclusive [inhibitor, partial curve, poor fit]"
10,CCCc1nc(N2CCN(S(=O)(=O)c3ccc(Cl)cc3)CC2)c2c(C)c(C)sc2n1,"inconclusive [inhibitor, single point]"
11,Cc1cc(C)c(-c2csc(NC(=O)C3=COCCO3)n2)c(C)c1,active: 9.28 µM
12,O=C(NCc1ccc(F)cc1)C1CCCN(S(=O)(=O)c2ccc(-n3cnnn3)cc2)C1 (stereo not given),inactive
13,Cc1ccc(-n2c(Cc3cccn3C)nnc2SCC(=O)Nc2cc(C)on2)cc1,"inconclusive [inhibitor, single point]"
14,CC(=O)c1cnc2c(-c3ccccc3)c(-c3ccccc3)nn2c1C,inactive
15,C=CCNC(=O)C(C#N)c1nc2ccccc2nc1N1CCCCCC1 (stereo not given),"inconclusive [inhibitor, single point]"
16,OC(CNCc1ccc(Cl)c(Cl)c1)c1ccccc1 (stereo not given),active: 5.86 µM
17,O=C(CN(Cc1ccc(F)cc1)S(=O)(=O)c1ccccc1)N1CCCCC1,"inconclusive [inhibitor, single point]"
18,Cc1cccc(NC(=S)NC2CC3CCCC(C2)N3Cc2cccs2)c1C (stereo not given),"inconclusive [inhibitor, partial curve, poor fit]"
19,CC(C)OC(=O)c1cc(NC(=S)Nc2ccc([N+](=O)[O-])cc2)cc(C(=O)OC(C)C)c1,"inconclusive [inhibitor, single point]"
20,COCCN(Cc1ccccc1)C(=O)c1cc(S(=O)(=O)N2CCCCCC2)ccc1OC,"inconclusive [inhibitor, partial curve]"
21,Cc1nn2c(NCCCn3ccnc3)cc(C(C)C)nc2c1-c1ccccc1,active: 2.08 µM
22,CCn1cc(C(=O)Nc2sc(C)c(C)c2C(=O)OC)cn1,inactive
23,O=C(O)[C@@H]1[C@@H]2C[C@H]3c4[nH]c5ccccc5c4CCN3C[C@@H]2CC[C@@H]1O,"inconclusive [inhibitor, single point]"
24,CCOC(=O)c1nc2cc3n(c(CC(C)C)c-2c1C)CC(C)=C3C,active: 1.17 µM

row,SMILES,Potency
1,CC(C)c1ccc(CNc2ncc(Br)cn2)cc1,inactive
2,Cn1c(N)c(C(=O)COC(=O)/C=C/c2ccccc2Cl)c(=O)n(C)c1=O,"inconclusive [inhibitor, single point]"
3,CCC(=NCCc1ccccc1)c1c(O)n(C2CCCCC2)c(=O)[nH]c1=O,"inconclusive [inhibitor, single point]"
4,Cc1cc2occ(CC(=O)N(C)CC(=O)Nc3ccc(F)cc3)c2cc1C,inactive
5,N#CCSc1nc2c(c(=O)n1Cc1ccccc1)C1(CCCC1)Cc1ccccc1-2,"inconclusive [inhibitor, single point]"
6,O=C(Nc1ccnn1C1CCN(C/C=C/c2ccccc2)CC1)C1CCCC1,active: 13.1 µM
7,CCN(C(=O)CSc1nnc(-c2ccco2)n1C)c1c(N)n(Cc2ccccc2)c(=O)[nH]c1=O,"inconclusive [inhibitor, single point]"
8,Cc1nn(Cc2ccccc2Cl)c2sc(C(=O)OC3CCCC3=O)cc12 (stereo not given),"inconclusive [inhibitor, partial curve]"
9,CCOc1ccc(C(=O)Nc2ccc(N3CCN(C)CC3)cc2)cc1Br,"inconclusive [inhibitor, single point]"
10,O=C(N/N=C/c1ccco1)c1csc2c1CCCC2,"inconclusive [inhibitor, single point]"
11,C[C@@H](NC(=O)c1nc[nH]c1C(=O)N[C@@H](Cc1ccccc1)C(=O)OCc1ccccc1)c1ccccc1,"inconclusive [inhibitor, partial curve, poor fit]"
12,O=c1c2ccccc2nc(/C=C/c2ccccc2)n1-c1ccccc1O,active: 9.28 µM
13,O=C(NCC12CC3CC(CC(C3)C1)C2)c1nn2c(c1Cl)NC(c1ccco1)CC2C(F)(F)F (stereo not given),"inconclusive [inhibitor, partial curve, poor fit]"
14,CNc1nc(-c2ccc3c(c2)CCN3S(=O)(=O)c2ccccc2)c(C)s1,"inconclusive [inhibitor, partial curve]"
15,CC(C)CCN(C(=O)c1ccncc1)c1c(N)n(Cc2ccccc2)c(=O)[nH]c1=O,"inconclusive [inhibitor, single point]"
16,Cc1onc(-c2c(Cl)cccc2Cl)c1NC(=O)NNc1ccccc1,"inconclusive [inhibitor, single point]"
17,CN(CC(=O)Nc1ccc(F)c(F)c1F)c1cnccn1,active: 13.1 µM
18,COCCN(Cc1cc2ccc(C)c(C)c2nc1Cl)C(=O)N1CCOCC1,"inconclusive [inhibitor, single point]"
19,C[C@H]1CN(Cc2ccccc2)C(=O)[C@@H]1CC(=O)NCc1ccccc1,"inconclusive [inhibitor, full curve, poor fit]"
20,O=C(NC1CCCCCC1)c1ccc(-n2cnnc2)cc1,"inconclusive [inhibitor, full curve, poor fit]"
21,COc1ccc(-c2csc(NC(=O)c3ccccc3NS(=O)(=O)c3ccc(F)c(F)c3)n2)cc1,active: 1.85 µM
22,CCOC(=O)C1CCN(C(=O)Cn2nc(C)c3c(C)n(-c4ccccc4)nc3c2=O)CC1,"inconclusive [inhibitor, single point]"
